Reference: the antibiotic and cytotoxicity screens of Wong et al. (2023)
Some of the results follow.

Key:
HSkMC = human skeletal muscle cells; experiment: cytotoxicity call (relative viability < 0.9); conditions: 10 µM
S. aureus RN4220 = experiment: growth inhibition call (relative growth <= 0.2); conditions: 50 µM

Row | Structure (SMILES) | cytotoxicity call (HSkMC) | growth inhibition call (S. aureus RN4220)
1 | C[C@H](CO)N1C[C@H](C)[C@H](CN(C)Cc2ccccc2)Oc2ccc(NC(=O)CCCCCC(=O)Nc3ccccc3N)cc2C1=O | inactive | inactive
2 | OCCN1CNC(=S)NC1 | inactive | inactive
3 | C[C@H](CO)N1C[C@H](C)[C@@H](CN(C)S(=O)(=O)c2ccccc2)Oc2ccc(NC(=O)CCN3CCOCC3)cc2CC1=O | inactive | inactive
4 | COc1ccc(S(=O)(=O)N(C)C[C@@H]2OCCCC[C@H](C)Oc3ccc(NC(=O)Nc4ccc(C(F)(F)F)cc4)cc3C(=O)N([C@@H](C)CO)C[C@H]2C)cc1 | inactive | inactive
5 | COCC#Cc1ccc2c(c1)O[C@H](CN(C)C(=O)Nc1ccccc1F)[C@H](C)CN([C@@H](C)CO)S2(=O)=O | inactive | inactive
6 | C[C@@H]1CCCCO[C@H](CN(C)Cc2ccc(C(=O)O)cc2)[C@H](C)CN([C@@H](C)CO)C(=O)c2cc(NC(=O)Nc3cccc4ccccc34)ccc2O1 | inactive | inactive
7 | C[C@@H]1CN([C@H](C)CO)C(=O)Cc2cc(NC(=O)Cn3cnnn3)ccc2O[C@H]1CN(C)S(=O)(=O)c1ccc(F)cc1 | inactive | inactive
8 | CCC(=O)Nc1ccc2ccccc2c1 | inactive | inactive
9 | COc1ccc(CN(C)C[C@H]2OCCCC[C@@H](C)Oc3ccc(NC(=O)Nc4ccc(F)cc4)cc3C(=O)N([C@@H](C)CO)C[C@H]2C)cc1 | inactive | inactive
10 | O=C1O[C@@H](c2ccccc2)[C@@H](c2ccccc2)N2[C@@H](c3ccc(O)cc3)[C@]3(C(=O)Nc4ccccc43)[C@@H](C(=O)Nc3nc4ccccc4s3)[C@H]12 | inactive | inactive
